The whole screen tested about 52,000 compounds, of which about 1,700 (3.3%) were called active. No stated cut-off is given here; in the data, active means survival mostly below about 52% (no sharp cut-off); inactive means mostly above about 56%. The list shows a part of the results.
tested on: Wild type; assay: growth inhibition of S. aureus wild type versus tarO mutant, primary screen, teichoic acid synthesis inhibitors, RN4220, OD600 (AID 463173); settings: S. aureus RN4220 wild type/DeltatarO growth, OD600, 18 h, active compounds read low, screened at 18.75 µg/mL (by protocol)

Row | Compound | survival
1 | CCOc1ccc(CNc2cc(C)nc3nc(-c4cccc(C)c4)nn23)cc1OC | inactive: 80%
2 | Cc1cccc(NC(=O)c2ccc3oc(=O)c(S(=O)(=O)c4ccc(F)cc4)cc3c2)c1C | inactive: 127%
3 | CCc1ccccc1N(C)C(=O)c1nn(-c2ccc(OC)cc2)c(=O)c2c1c1ccccc1n2C | inactive: 89%
4 | CCOc1ccc(S(=O)(=O)c2cc3cccc(OCC)c3oc2=O)cc1 | inactive: 81%
5 | CCOC(=O)c1cnc2ccc(OCC)cc2c1NCCN(C)C | inactive: 103%
6 | CC1CCc2c(sc3nnn(Cc4ccccc4Cl)c(=O)c23)C1 (stereo not given) | inactive: 16%
7 | CCOc1ccccc1C1C(C(=O)Nc2ccccc2)=C(C)Nc2nc(-c3ccccc3)nn21 (stereo not given) | inactive: 94%
8 | CCCCn1c(SCC(=O)c2ccccc2)nc2sc3c(c2c1=O)CCCC3 | inactive: 62%
9 | CCOc1ccccc1Oc1ncnc2c1oc1ccccc12 | inactive: 88%
10 | CC1CCC(NC(=O)c2ccc3c(c2)N(Cc2ccccc2F)C(=O)c2ccccc2S3(=O)=O)CC1 (stereo not given) | inactive: 89%
11 | CCOC(=O)c1cc(C)n(CC2CCC(C(=O)Nc3cccc(C(C)=O)c3)CC2)c1C (stereo not given) | inactive: 79%
12 | CCOc1ccccc1CNCc1c(C(=O)O)n(Cc2ccccc2)c2cc(OC)ccc12 | inactive: 84%
13 | Cc1ccc(S(=O)(=O)Nc2ccc(-c3ccc(N4CCCCCC4)nn3)cc2)c(C)c1 | inactive: 67%
14 | COc1ccc(N2CCN(C(=O)c3cnc(N4CCOCC4)c4ccccc34)CC2)cc1 | inactive: 138%
15 | Cc1ccc(-c2nnc3c4ccccc4c(-c4ccccc4)nn23)cc1 | inactive: 123%
16 | CC(C)NC(=O)CSc1cn(CC(=O)N2CCCCCC2)c2ccccc12 | inactive: 95%
17 | CCOc1ccccc1NCc1nnc2n1CCCCC2 | inactive: 76%
18 | Cc1ccc(NCc2cc3cc4c(cc3n(CC(=O)Nc3ccc(C)cc3)c2=O)OCCO4)cc1 | active: 0%
19 | COc1ccc(C)cc1NC(=O)c1nnn(CC(=O)Nc2c(C)cccc2C)c1N | inactive: 74%
20 | CC1=C(C(=O)N(C)C)C(c2ccccc2Cl)NC(=O)N1 (stereo not given) | inactive: 102%
21 | Cc1ccc(C)c(S(=O)(=O)c2nnn3c2nc(NC2CCCC2)c2sccc23)c1 | inactive: 58%
22 | Cc1ccc(S(=O)(=O)c2cn(Cc3ccccc3)c3cc(N4CCCC4)c(F)cc3c2=O)c(C)c1 | inactive: 78%
23 | CSc1nnc(NC(=O)c2cc(=O)c3cc(C)c(C)cc3o2)s1 | inactive: 86%

Row | Compound | survival
24 | CCc1cccc(NC(=O)c2cc3c(=O)oc4ccc(C)cc4c3s2)c1 | inactive: 129%
25 | COc1ccc(CNC(=O)C(CC(C)C)NS(=O)(=O)c2ccc3c(c2)oc(=O)n3C)cc1 (stereo not given) | inactive: 79%
26 | CCCNS(=O)(=O)c1ccc(OCC(=O)NCc2ccco2)cc1 | inactive: 116%
27 | CCCCN(CC)C(=O)c1ccc2c(c1)NC(=O)c1ccccc1S2 | inactive: 99%
28 | Cc1cccc(C)c1NC(=O)C(=O)NCC(c1ccc2c(c1)OCO2)N1CCN(C)CC1 (stereo not given) | inactive: 78%
29 | CC(C)(C)n1nnnc1C(c1cccc(C(F)(F)F)c1)N1CCC(O)CC1 (stereo not given) | inactive: 127%
30 | COc1cc(S(=O)(=O)Nc2ccccc2NC(=O)CN2CCOCC2)c(OC)cc1NC(C)=O | inactive: 111%
31 | CCOc1c(CNCCSc2nnnn2C)cccc1OC | inactive: 69%
32 | COC(=O)c1cc(-c2ccc(C)cc2)no1 | inactive: 102%
33 | N#Cc1ccc(OCc2nnc(SCC(=O)c3ccccc3)n2-c2ccccc2)cc1 | inactive: 108%
34 | Cc1ccc(Cn2c(=O)n(Cc3ccc(C(=O)NC4CCN(Cc5ccccc5)CC4)cc3)c(=O)c3ccccc32)cc1 | inactive: 81%
35 | CCc1cccc(NC(=O)C2CCCN2S(=O)(=O)c2ccc3nc(-c4ccccc4)[nH]c3c2)c1 (stereo not given) | inactive: 49%
36 | CCN(CC)CCN1C(=O)c2ccccc2NC1c1ccccc1F (stereo not given) | inactive: 110%
37 | CC(=O)c1ccc(NC(=O)CCn2cccn2)cc1 | inactive: 63%
38 | Cc1ccc(-n2c(C)cc(C=C3C(=O)NC(=O)NC3=O)c2C)cc1 | inactive: 105%
39 | CN1C(=O)Cc2cc(S(=O)(=O)NCc3ccccc3Cl)ccc21 | inactive: 97%
40 | O=C(c1ccc(Br)cc1)N(Cc1ccco1)c1ccccn1 | inactive: 82%
41 | Cc1ccc2oc(C(=O)N3CCC(c4nc5ccccc5s4)CC3)c(C)c2c1 | inactive: 70%
42 | COc1ccc(N(CC(=O)N2CCCCC2)S(=O)(=O)c2ccc(OC)c(OC)c2)cc1 | inactive: 71%
43 | CCCc1ccc(OCc2ccc(C(=O)Nc3ccccc3C(=O)OC)o2)cc1 | active: 3%
44 | CCc1ccc(CNC(=O)c2cccc(-n3c(C)nc4cccnc43)c2)cc1 | inactive: 65%
45 | CCc1ccc(NC(=O)Cn2c(=O)n(-c3cccc(OC)c3)c(=O)c3c(C)c(C(=O)N(C)C)sc32)cc1 | inactive: 88%
46 | COc1ccc(-c2cnnn2-c2ccc(NC(=O)c3ccccc3OC)cc2)cc1 | inactive: 153%

Row | Compound | survival
47 | Cc1c(C(=O)NCc2cccc(Cl)c2)sc2nc3n(c(=O)c12)CCCC3 | inactive: 74%
48 | COc1ccc(CCNC(=O)CN2C(=O)COc3ccc(S(=O)(=O)N4CCCC4)cc32)c(OC)c1 | inactive: 79%
49 | Cc1ccc(NC(=O)CC2Oc3ccccc3NC2=O)cc1C (stereo not given) | inactive: 127%
50 | COc1ccc(C2=C(N3CCN(c4cccc(C)c4C)CC3)c3ccccc3C2=O)cc1 | inactive: 78%
51 | CCN(CC)CCCNC(=O)c1ccc(Cn2c(SCc3ccccc3)nc3cccnc32)cc1 | inactive: 65%
52 | Cn1c(=O)n(Cc2c(F)cccc2Cl)c(=O)c2c1nc1n2CCN1c1ccc(F)cc1 | inactive: 112%
53 | Cc1c(C(=O)NCc2cccc(Br)c2)oc2ccc3c(c12)C(=O)CC(C)(C)O3 | inactive: 67%
54 | COc1c(C)cccc1C(=O)Nc1ccc(-c2nc3ccccc3s2)c(Cl)c1 | inactive: 89%
55 | Nc1nn(-c2ccccc2)nc1C(=O)OCc1ccc(Cl)cc1 | inactive: 59%
56 | COc1ccc(-c2nc3sc(CCNC(=O)C(=O)Nc4cccc(NC(C)=O)c4)c(C)n3n2)cc1 | inactive: 99%
57 | CC1=C(C(=O)NCc2ccccc2F)C2(CCCCC2)OC1=O | inactive: 73%
58 | Cc1ccc(CCNC(=O)C2CCCN(c3nnc(C)c4c(C)n(-c5ccccc5)nc34)C2)cc1 (stereo not given) | inactive: 71%
59 | COCCNC(=O)c1nn(-c2ccc(C)cc2)c(=O)c2c1c1ccccc1n2C | inactive: 88%
60 | CCOc1ccc(-c2cc(C(=O)OC)on2)cc1 | inactive: 102%
61 | O=C(Nc1ccccc1Cl)N1CCC(CN2CCCC2)CC1 | inactive: 55%
62 | N#Cc1ccc(-c2ccc(F)cc2)n(CC(=O)N2CCC(C(N)=O)CC2)c1=O | inactive: 108%
63 | COc1cccc(-c2nc(CS(=O)(=O)CC(=O)NCc3cccc(Cl)c3)c(C)o2)c1 | inactive: 82%
64 | Cc1ccc(CSc2ncc(Cl)c(C(=O)Nc3nnc(C)s3)n2)cc1 | inactive: 52%
65 | N#CC(C#N)=Cc1cn(CC(=O)N2CCOCC2)c2ccccc12 | inactive: 110%
66 | CC1=C(c2ccc(F)cc2)S(=O)(=O)N=C1N1CCC(C(=O)NCCc2cccc(C)c2)CC1 | inactive: 87%
67 | COc1cc2ncc3c(-c4ccc(C)cc4)nn(-c4ccc(F)cc4F)c3c2cc1OC | inactive: 75%
68 | CN(C)CCCNc1cc(N2CCN(C3CCCCC3)CC2)c2noc3c2c1C(=O)c1ccccc1-3 | inactive: 72%
69 | COc1ccc(Cn2ccnc2SCC(=O)Nc2nc3ccccc3s2)cc1 | inactive: 91%

Row | Compound | survival
70 | COc1ccccc1CNc1ccccc1F | inactive: 113%
71 | O=C(NCc1ccc2c(c1)CCN2C(=O)c1ccccc1)Nc1cccc(C(F)(F)F)c1 | inactive: 124%
72 | Cc1ccccc1OCCSc1nc2ccc(NC(=O)c3cccc(F)c3)cc2s1 | inactive: 110%
73 | Cc1ccc(NC(=O)CN2C(=O)c3cccnc3Oc3ccc(Cl)cc32)cc1 | inactive: 138%
74 | Cc1ccn2c(Nc3ccc4c(c3)OCCO4)c(-c3ccc(C)o3)nc2c1 | inactive: 75%
75 | Cc1cc(Nc2ccccc2C)n2nc(Cc3ccc(Cl)cc3)nc2n1 | inactive: 81%
76 | Cc1c(C(=O)NCc2ccccc2Cl)sc2ncnc(N(C)C3CCCCC3)c12 | inactive: 88%
77 | Cc1ccccc1-c1nc(CN2CCC(C(=O)NCc3ccc(F)cc3)CC2)c(C)o1 | inactive: 90%
78 | CC(=O)c1ccc(NC(=O)c2ccc3c(c2)N(Cc2cccc(Cl)c2)C(=O)c2ccccc2S3=O)cc1 (stereo not given) | inactive: 93%
79 | CCOC(=O)c1c(C)n(-c2ccccc2)c2ccc(OC(=O)COc3ccc(Cl)cc3)cc12 | inactive: 78%
80 | COc1ccc(NC(=O)c2cc3c(s2)-c2c(C)cccc2OC3)cc1Cl | inactive: 87%
81 | CC(Sc1nnc2c(n1)[nH]c1ccccc12)C(=O)NC1CC1 (stereo not given) | inactive: 103%
82 | CCCN(CCC)c1ccc(C2N=C(N)Nc3nc4ccccc4n32)cc1 (stereo not given) | inactive: 64%
83 | CCNC(=O)C1CCN(S(=O)(=O)c2ccc3c(c2)CCCN3C(C)=O)CC1 | inactive: 73%
84 | CCOc1cc(C(=O)Nc2ccc(-c3cn4cccnc4n3)cc2)cc(OCC)c1OCC | inactive: 97%
85 | O=C(Nc1ccc(N2CCCCC2)cc1)c1ccc2c(c1)OCO2 | inactive: 112%
86 | O=C(NCc1ccccc1)c1ccc(NC(=O)N2CC3CCCN3c3ccccc32)cc1 (stereo not given) | inactive: 77%
87 | Cc1ccc(S(=O)(=O)NC(Cc2ccccc2)C(=O)NN)cc1 (stereo not given) | inactive: 115%
88 | Cn1c(=O)oc2cc(S(=O)(=O)CCC(=O)N3CCN(c4cccc(Cl)c4)CC3)ccc21 | inactive: 68%
89 | COc1ccc(Br)cc1CNC(=O)c1cnc2sc(N3CCC(C)CC3)nn2c1=O | inactive: 68%
90 | Cc1ccc(C)c(N2CCN(S(=O)(=O)c3cc(C(=O)Nc4ccc(Oc5ccccc5)cc4)ccc3F)CC2)c1 | inactive: 128%
